Test results published in the RNAGym collection of RNA variant scans (doi:10.1073/pnas.2313332121).
This sample is rich in variants without activity.

B1: TPR 5TU (parent)
chain: GGAUCUUCUCGAUCUAACAAAAAAGACAAAUCUGCCACAAAGCUUGAGAGCAUCUUCGGAUGCAGAGGCGGCAGCCUUCGGUGGCGCGAUAGCGCCAACGUUCUCAACUAUGACACGCAAAACGCGUGCUCCGUUGAAUGGAGUUUAUCAUG

Variants of: B1
Test: polymerase ribozyme fitness, log enrichment relative to wild type (log ratio); higher = more active; in vitro selection for triplet polymerase activity
Procedure, shortened: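 Mutant libraries were PCR-built and transcribed for each subunit of a heterodimeric triplet polymerase ribozyme and selected for one round in triplicate at −7 °C, frozen, before gel excision of extended constructs and streptavidin-bead capture. Input and output libraries were Illumina-sequenced, keeping genotypes with ≥10 input reads and ≥1 read per output. Fitness is a logarithmic ratio of genotype to wild-type enrichment, in base 2, using inverse-variance-weighted replicate averages.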

Variant	polymerase ribozyme fitness (log ratio)
U45G G86U C99A A119U A137C	≤ -4.2
U45G G88A	-4.02
U45G G92A G152A	≤ -4.2
U45G G92U C103A U104A	≤ -4.2
U45G U53A C75A C93A A113G	≤ -4.2
U45G U55G A66C C85U G141C	≤ -4.2
G46A A49G A60G C85A C93U C103U C149G	≤ -4.2
G46A A52C C54G G83U	≤ -4.2
G46A A52G A91U G112C U145G	≤ -4.2
G46A A52G C85A	-2.54
G46A A52G U53G G94C G141C	≤ -4.2
G46A A97C C103G C123A G141C A147C C149A	≤ -4.2
G46A C54G G86U G117A A119G A137G G141C G143U	≤ -4.2
G46A C57A G80A G83U C87G G88U U90A A97U U101A U146G	≤ -4.2
G46A C57G A73G G84A G128C C149U	≤ -4.2
G46A C69A A91C C118U U134C U139A	≤ -4.2
G46A C76A C96U G141C	≤ -4.2
G46A C76G A91U C95A G141C	≤ -4.2
G46A C85A A150C	≤ -4.2
G46A C85A G136U G140U A142G	≤ -4.2
G46A C85G C87U A91G	≤ -4.2
G46A C87U A89C G94A A113C	≤ -4.2
G46A C103G A122C U146A	≤ -4.2
G46A C129U	-3.61

Variant	polymerase ribozyme fitness (log ratio)
G46A G50A C57U A60G G68A G83A G94U G141C	≤ -4.2
G46A G50C C132U	≤ -4.2
G46A G50C U56A G83U A147C	≤ -4.2
G46A G50C U77C C95A A119G	≤ -4.2
G46A G58C C87A U101G A121C U127A	≤ -4.2
G46A G58U C93U C108A C114U G140U	≤ -4.2
G46A G58U G81A G92A C99U	≤ -4.2
G46A G59A A60U G88A A138C	≤ -4.2
G46A G59A A97G C149A	≤ -4.2
G46A G59A A106G A110U C129U G133C	≤ -4.2
G46A G62C U135A	≤ -4.2
G46A G65A G70U C75A G84A G86U G88U	≤ -4.2
G46A G67A C96U G128C U139C A147U	≤ -4.2
G46A G67C U109G	≤ -4.2
G46A G68C A89C G124A	≤ -4.2
G46A G68C G83C A147U	≤ -4.2
G46A G74U C76A G80A	≤ -4.2
G46A G81A G136A U146A	0.373
G46A G86U U90G C93G U104A A106G U144A	≤ -4.2
G46A U53A G68A C87G G92U G143C	≤ -4.2
G46A U53A U77A G80A C85A A98U U102C C132G A138G	≤ -4.2
G46A U61G G80U A122U A138C	≤ -4.2
G46A U77A G94A C105U G124A	≤ -4.2
G46A U82A G83U C93U	≤ -4.2

Variant	polymerase ribozyme fitness (log ratio)
G46A U82A G88C U90G	≤ -4.2
G46C A47C G62C G65A C93A A97U C149A	≤ -4.2
G46C A47G G71A C85U G88C	≤ -4.2
G46C A49U C72U C116U	≤ -4.2
G46C A60G C85A C87A C105G C116G	≤ -4.2
G46C C54U G65U C93A A98G G117U G141C	≤ -4.2
G46C C57U G80A G81A	≤ -4.2
G46C C75U C105U	≤ -4.2
G46C C75U G88A A106U C116G	≤ -4.2
G46C C85G C96U C116A C118A	≤ -4.2
G46C C96A C123G	-1.48
G46C C99G U101G C105G G124A	-2.54
G46C C114U	-3.67
G46C G50C A89G A107C G152C	≤ -4.2
G46C G50U U61G A91G C99U C105A A107U C125A	≤ -4.2
G46C G74A U77C C93U	≤ -4.2
G46C G83U G141U U148C	≤ -4.2
G46C U55A C69G U82A C85G C108U	≤ -4.2
G46C U61G U78A C93A	≤ -4.2
G46U A47C G71C A98U C105G	≤ -4.2
G46U A47C G71C G92A C95G U151G	≤ -4.2
G46U A47U G71U C93U A120U	≤ -4.2
G46U A66G C75G C93G	≤ -4.2
G46U C69G	-0.758

Variant	polymerase ribozyme fitness (log ratio)
G46U C85G A110C A137U U151A	≤ -4.2
G46U C87A	≤ -4.2
G46U C103G G124A U151G	≤ -4.2
G46U G58A G59A C103G	≤ -4.2
G46U G74U A91U U146G C149A	≤ -4.2
G46U G84A G86A C125U	≤ -4.2
G46U U55G U56C A91G G141U U151C	≤ -4.2
G46U U56A	-0.107
A47C A49C C54U G83U C93U C149G	≤ -4.2
A47C A49C G62U A64U C96U A138U	≤ -4.2
A47C A49C U144G	-4
A47C A49G C51G C75G A89C G94A U145A	≤ -4.2
A47C A49U C57U C75U U77C C87U C108G G140A	≤ -4.2
A47C A52C C54A U104A	≤ -4.2
A47C A60G C85A	-2.83
A47C A60G C93A C95A C96U	≤ -4.2
A47C A60G U61G C69U C96G	≤ -4.2
A47C A66U C103G	≤ -4.2
A47C A89G C118A G133U	≤ -4.2
A47C A106C C125A A142U	≤ -4.2
A47C A119G	0.0948
A47C C54A U56A C75A G86A C93A A107G C132A	≤ -4.2
A47C C57G G71A A97U U130A G141U	≤ -4.2
A47C C57U C76G G124A G152U	≤ -4.2

Variant	polymerase ribozyme fitness (log ratio)
A47C C63G A91U C96A A106C C129G G136C	≤ -4.2
A47C C85A C96U A97U	≤ -4.2
A47C C85U	-1.58
A47C C87G G88C	≤ -4.2
A47C C93U A106U A107G	≤ -4.2
A47C C95U C116A	-0.555
A47C G48A C87A	≤ -4.2
A47C G48A G124U	-3.59
A47C G48U C85U A106G	≤ -4.2
A47C G50A G92A C116G G117C	≤ -4.2
A47C G50C A91U G140A	≤ -4.2
A47C G50C C75A G84C C85G A119G U127G	≤ -4.2
A47C G50C U139A	≤ -4.2
A47C G50U G58U A91G A97U U102A	≤ -4.2
A47C G59A C72U G81C A89G G128C U134C	≤ -4.2
A47C G59A G84U G94U G124A	-3.56
A47C G65U A98U C131G	≤ -4.2
A47C G74U A107G A122U	≤ -4.2
A47C G80C U111G C123A	≤ -4.2
A47C G83C G112C	≤ -4.2
A47C G83U C103A C118A G133A G136A	≤ -4.2
A47C G84A C96U C108U U109G A147U	≤ -4.2
A47C G141A	-1.5
A47C U53A A64U A147G	≤ -4.2

Variant	polymerase ribozyme fitness (log ratio)
A47C U53A G81A U104G	-1.12
A47C U55A C93U U109C G133U G140U A147G	≤ -4.2
A47C U55A G68A A73G C118G U127A G143U	≤ -4.2
A47C U55A G80C A91G G152A	≤ -4.2
A47C U55G	0.183
A47C U55G C93U A137C	≤ -4.2
A47C U56G A60C G94C G100A U151A	≤ -4.2
A47C U61A G94C C103U U104G	≤ -4.2
A47C U78G	≤ -4.2
A47C U127C	-1.6
A47C U134G G136A	-0.632
A47G A52C A97U	-1.2
A47G A52C G88U A142U	≤ -4.2
A47G A52G U56A C87G	≤ -4.2
A47G A52U C72U C85A U135C G141C	≤ -4.2
A47G A52U C87U C99A C103G	≤ -4.2
A47G A60G A64C C76U C93U U145G	≤ -4.2
A47G A91G A97G G112C	≤ -4.2
A47G A91U C95G U102C G133U	≤ -4.2
A47G C54A U61G C72U G94C C99U U102G G140A A142U A150C	≤ -4.2
A47G C54G	-0.785
A47G C57A U90G A120G	≤ -4.2
A47G C85G U90G C123A	≤ -4.2
A47G C87A G126A	≤ -4.2

Variant	polymerase ribozyme fitness (log ratio)
A47G C87A U109G C116A	≤ -4.2
A47G C93G U144A	-2.58
A47G G48A G50U C76U U82G C116G U148G	≤ -4.2
A47G G50A C85A A113C C129U	≤ -4.2
A47G G50U G94U G141C	-2.22
A47G G71C G81A C85U A121C A142U	≤ -4.2
A47G G80U U90G C99G G117U A138C	≤ -4.2
A47G G81C C87A G88A G140U	≤ -4.2
A47G G84C C99G G100U C103U	≤ -4.2
A47G G86U G88C U109G	≤ -4.2
A47G U53A G94U A98U U139G U144A	≤ -4.2
A47G U55A A91G	-2.78
A47G U56A U90C G92U U139C	≤ -4.2
A47G U61A	-1.41
A47G U77A G86C G126C	≤ -4.2
A47U A52U C93A C125G U135C	≤ -4.2
A47U A52U C96U A120U G141C	≤ -4.2
A47U A60U A91C U135G	≤ -4.2
A47U A60U U77G A115G	≤ -4.2
A47U A64U	≤ -4.2
A47U A64U G124C A138C	≤ -4.2
A47U A107G	≤ -4.2
A47U A121U A147C C149U	-3.04
